Results published in article PMC4336329 (PLoS ONE, 2015).
Out of some 310,000 compounds screened, about 2,200 (0.71%) showed an effect of 50% or more. The effect is printed as a negative number. This is one part of the list.

What follows are molecules tested against human ether-à-go-go-related gene (hERG) potassium channel (human, UniProt Q12809) (assay: primary screen, population patch clamp on CHO cells stably expressing hERG).
human ether-à-go-go-related gene (hERG) potassium channel, sequence (Q12809 whole entry, looked up): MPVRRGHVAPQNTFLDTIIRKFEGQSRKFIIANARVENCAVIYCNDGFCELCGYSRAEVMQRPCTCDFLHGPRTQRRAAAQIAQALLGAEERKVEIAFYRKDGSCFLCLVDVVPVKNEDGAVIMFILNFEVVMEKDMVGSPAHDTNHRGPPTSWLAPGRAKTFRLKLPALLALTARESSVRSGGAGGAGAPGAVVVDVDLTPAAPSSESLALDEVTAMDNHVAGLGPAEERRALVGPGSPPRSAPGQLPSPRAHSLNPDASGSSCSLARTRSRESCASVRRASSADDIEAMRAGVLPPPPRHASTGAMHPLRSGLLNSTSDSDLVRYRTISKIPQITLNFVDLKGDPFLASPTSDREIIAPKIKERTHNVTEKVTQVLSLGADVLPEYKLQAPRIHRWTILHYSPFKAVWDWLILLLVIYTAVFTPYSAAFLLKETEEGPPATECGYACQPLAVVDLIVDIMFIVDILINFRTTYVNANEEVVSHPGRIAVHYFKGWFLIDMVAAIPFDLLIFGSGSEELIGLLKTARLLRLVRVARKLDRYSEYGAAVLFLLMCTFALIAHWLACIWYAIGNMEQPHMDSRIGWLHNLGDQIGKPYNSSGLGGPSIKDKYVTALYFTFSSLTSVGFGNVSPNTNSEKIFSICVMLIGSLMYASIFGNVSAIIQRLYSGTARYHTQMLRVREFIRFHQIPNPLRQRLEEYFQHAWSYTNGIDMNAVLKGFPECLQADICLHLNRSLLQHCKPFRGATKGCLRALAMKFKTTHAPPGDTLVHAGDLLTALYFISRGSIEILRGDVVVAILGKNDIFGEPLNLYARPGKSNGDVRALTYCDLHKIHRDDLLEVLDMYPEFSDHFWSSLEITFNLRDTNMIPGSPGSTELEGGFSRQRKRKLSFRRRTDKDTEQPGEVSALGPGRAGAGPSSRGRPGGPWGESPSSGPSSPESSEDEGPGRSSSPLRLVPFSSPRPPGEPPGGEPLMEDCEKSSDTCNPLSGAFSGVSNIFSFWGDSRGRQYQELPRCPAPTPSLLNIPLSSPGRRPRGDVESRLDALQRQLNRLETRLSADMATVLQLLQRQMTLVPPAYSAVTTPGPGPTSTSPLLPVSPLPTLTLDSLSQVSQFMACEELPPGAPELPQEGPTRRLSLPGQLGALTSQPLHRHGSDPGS

SMILES	hERG current change (%, negative = inhibition) at 1uM
C(=N\N(c1ccccc1)c1ccccc1)/c1ccc2c(c1)OCO2	11.2%
N/C(Cc1nc(-c2ccc(Cl)cc2)cs1)=N/O	9.97%
CCOc1ccc(N(CC(=O)NCc2ccc(F)cc2)C(=O)c2ccco2)cc1	-5.88%
CC1CCN(CC(=O)Nc2ccc(Br)cc2[N+](=O)[O-])CC1	11.7%
COc1cccc(C2C(C#N)=C(N)Oc3c2oc(CO)cc3=O)c1 (stereo not shown)	14.1%
CC(NC(=O)Nc1ccccc1)c1ccccc1 (stereo not shown)	-0.139%
CC(C)NC(=O)COC(=O)c1ccc(Cl)c(S(=O)(=O)N2CCCC2)c1	4.1%
Cc1ncc([N+](=O)[O-])n1CCOC(=O)Nc1ccc([N+](=O)[O-])cc1	10.8%
Cc1ccc(NC(=O)CNC(C)c2ccccc2)cc1.Cl (stereo not shown)	11%
COc1ccc2nc3oc(C(=O)N4CC(C)CC(C)C4)cc3cc2c1 (stereo not shown)	13.2%
CN(Cc1nc2ccc(F)cc2[nH]1)Cc1nc(CC2CC2)no1	6.9%
Cc1ccc(CN2CCC(c3nc4ccc(Cl)cc4[nH]3)CC2)cc1	-91.8%
C/C(CC(=O)Nc1ccc2c(c1)OCCO2)=N\NC(=O)c1ccc([N+](=O)[O-])cc1Cl	14%
O=C(c1ccco1)N1CCN(C(=O)c2cc(-c3ccc(F)cc3)no2)CC1	-18.9%
O=C(Nc1c(C(=O)N2CCCCC2)cnn1-c1ccccc1)c1ccco1	14%
CC1(C)CC(=O)C(C(C#Cc2ccccc2)C2=C(O)CC(C)(C)CC2=O)=C(O)C1	10.9%
Cc1ccc(NC(=O)CSc2nnc(Cc3csc(C)n3)o2)c(C)c1	18.2%
O=C(NCC(O)c1ccccc1)c1ccc(Cl)c(S(=O)(=O)N2CCCC2)c1 (stereo not shown)	5.35%
CCOC(=O)CN1C(=O)S/C(=C\c2ccc3c(c2)OCO3)C1=O	9.64%
O=C(CSc1ccccn1)N1CCOCC1	7.13%

SMILES	hERG current change (%, negative = inhibition) at 1uM
CC(C)(O)C#Cc1ccc(C(=O)NCCC(=O)O)s1	18%
O=C(NNC(=S)Nc1ccccc1)c1cccs1	8.82%
O=C(N/N=C1\C2CN3CCN(C2)CC1(c1ccccc1)C3)Nc1ccccc1	1.37%
Cc1ccc(N2CC(C(=O)N3CCN(C(=O)c4ccco4)CC3)CC2=O)cc1 (stereo not shown)	-45.8%
CC(NC(=O)CCC(=O)c1ccccc1)c1ccc(F)cc1 (stereo not shown)	-8.55%
Cc1ccccc1NC(=O)CSc1nnc(NC(=O)C2CC2)s1	10.8%
CCOC(=O)c1cc2cc(F)ccc2nc1C	8.26%
O=Cc1cn(CCC(=O)O)nc1-c1cccc2ccccc12	11.3%
N=C1C(c2ccccc2)=C(O)CN1Cc1ccco1	3.36%
O=[N+]([O-])c1cc([N+](=O)[O-])c2n[nH]c(-c3ccccc3)c2c1	13.5%
O=C(c1ccc(C(=O)N2CCOCC2)nc1)N1CCOCC1	15.9%
Cc1ccc(OCCn2cc(/C=C(\C#N)C(=O)NCC3CCCO3)c3ccccc32)cc1 (stereo not shown)	7.74%
COc1cccc(/C(C)=N/NS(=O)(=O)c2ccc(Cl)cc2)c1	7.71%
COc1ccc2cc(/C=N/NC(=O)CSCc3ccc([N+](=O)[O-])cc3)c(Cl)nc2c1	10.9%
Cc1cccnc1NC(=O)C1CCN(S(=O)(=O)c2cccs2)CC1	11.7%
C=CCSc1nc2ccccc2n1S(=O)(=O)c1ccc(C)cc1	15.9%
CNc1nc(Nc2ccc(C)c(Cl)c2)nc(N)c1[N+](=O)[O-]	6.53%
C=CC1=C2C=C(C3CC3)N(CC3CC3)C=C2C(=O)C(C)(OC(=O)c2ccco2)C1=O (stereo not shown)	2.58%
CC(=O)Nc1cc2c(cc1C(C)=O)OCCO2	8.39%
COc1ccc(NC(=O)Cn2c(=O)sc3ccccc32)c(OC)c1	9.15%

SMILES	hERG current change (%, negative = inhibition) at 1uM
COc1ccccc1/C=C/C(=O)N1CCc2cc(OC)c(OC)cc2C1C (stereo not shown)	13.2%
Cc1cccc(NC(=O)c2ccc(F)c(S(=O)(=O)NCc3ccco3)c2)c1	-11.9%
Cl.NC(=O)c1[nH]cnc1N	13.1%
CCS(=O)(=O)Nc1ccc(C(=O)c2ccccc2)cc1	-2.91%
O=C(O)CCCCCN1C(=O)CCC1=O	12.2%
CN(C(=O)COc1coc(CN2CCN(c3ccccc3)CC2)cc1=O)c1ccccc1	-2%
c1ccc(COCCCn2cc(-c3ccccc3)nn2)cc1	7.34%
Cc1cc(Oc2ccc(=O)n(C)n2)nc(SCCOc2ccccc2)n1	14.2%
Cc1cc(C(=O)CSc2nnnn2C)c(C)n1Cc1ccco1	22%
CC(C)(C)c1ccc(S(=O)(=O)N2CC(C(=O)O)Oc3ccc(Cl)cc32)cc1 (stereo not shown)	9.68%
COc1cc(C(=O)NCc2nnc(SCC(=O)c3ccc(Cl)cc3)o2)cc(OC)c1OC	11.5%
CCOc1ccc(CC(=O)NCC2(N3CCCCC3)CCCCC2)cc1	1.57%
Cc1ccc(S(=O)(=O)N(C)CC(=O)OCC(=O)c2c(N)n(C)c(=O)n(C)c2=O)cc1	-3.67%
COc1ccccc1C(=O)NNC(=O)c1ccccc1Br	21%
CC(=O)c1ccc(N2CCN(C(=O)c3cc(-c4ccc5c(c4)OCO5)nc4ccccc34)CC2)cc1	13.1%
CCOc1ccc(-c2cccc(NC(=O)COc3ccc(Cl)cc3)c2)nn1	7.7%
CC(O)CNc1nc2c(c(=O)n(C)c(=O)n2C)n1Cc1cccc(C(F)(F)F)c1 (stereo not shown)	1.17%
COc1ccc(C2/C=C\CN(S(=O)(=O)/C=C/c3ccccc3)CC(=O)N2Cc2ccc(F)cc2)cc1 (stereo not shown)	8.33%
